Our source for the binding values is article PMC1513213.

Protein sequences, listed by entry. Tags and fused reporters are not part of them.
UniProt O75410: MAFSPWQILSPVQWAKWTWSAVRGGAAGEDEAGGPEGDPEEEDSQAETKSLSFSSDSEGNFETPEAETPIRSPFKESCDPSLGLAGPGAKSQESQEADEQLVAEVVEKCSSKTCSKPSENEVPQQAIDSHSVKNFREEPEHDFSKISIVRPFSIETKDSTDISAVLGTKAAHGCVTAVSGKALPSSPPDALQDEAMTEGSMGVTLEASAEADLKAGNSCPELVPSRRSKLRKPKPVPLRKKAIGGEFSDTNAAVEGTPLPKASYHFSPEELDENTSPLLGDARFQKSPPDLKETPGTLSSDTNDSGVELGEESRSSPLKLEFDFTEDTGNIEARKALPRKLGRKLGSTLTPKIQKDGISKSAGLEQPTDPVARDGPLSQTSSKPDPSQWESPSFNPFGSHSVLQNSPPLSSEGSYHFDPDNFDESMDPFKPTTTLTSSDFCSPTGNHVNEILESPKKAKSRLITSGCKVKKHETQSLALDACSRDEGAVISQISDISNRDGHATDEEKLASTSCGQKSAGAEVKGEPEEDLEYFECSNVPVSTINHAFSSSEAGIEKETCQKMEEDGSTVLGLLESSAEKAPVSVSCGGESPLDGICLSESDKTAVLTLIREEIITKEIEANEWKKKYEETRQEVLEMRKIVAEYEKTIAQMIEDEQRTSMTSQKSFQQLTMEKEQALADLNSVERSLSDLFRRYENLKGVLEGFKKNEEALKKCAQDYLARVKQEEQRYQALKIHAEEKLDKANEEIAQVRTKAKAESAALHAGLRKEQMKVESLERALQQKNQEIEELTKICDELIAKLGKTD
UniProt P31946: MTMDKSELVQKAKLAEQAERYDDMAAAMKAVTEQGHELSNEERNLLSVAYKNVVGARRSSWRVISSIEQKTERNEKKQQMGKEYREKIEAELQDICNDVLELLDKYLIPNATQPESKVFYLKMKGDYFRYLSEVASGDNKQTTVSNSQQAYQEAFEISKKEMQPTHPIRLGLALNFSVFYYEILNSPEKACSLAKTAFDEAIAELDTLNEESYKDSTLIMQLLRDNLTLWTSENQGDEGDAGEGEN

T1: LET-756::GFP (C. elegans) (UniProt Q11184)
T1 sequence: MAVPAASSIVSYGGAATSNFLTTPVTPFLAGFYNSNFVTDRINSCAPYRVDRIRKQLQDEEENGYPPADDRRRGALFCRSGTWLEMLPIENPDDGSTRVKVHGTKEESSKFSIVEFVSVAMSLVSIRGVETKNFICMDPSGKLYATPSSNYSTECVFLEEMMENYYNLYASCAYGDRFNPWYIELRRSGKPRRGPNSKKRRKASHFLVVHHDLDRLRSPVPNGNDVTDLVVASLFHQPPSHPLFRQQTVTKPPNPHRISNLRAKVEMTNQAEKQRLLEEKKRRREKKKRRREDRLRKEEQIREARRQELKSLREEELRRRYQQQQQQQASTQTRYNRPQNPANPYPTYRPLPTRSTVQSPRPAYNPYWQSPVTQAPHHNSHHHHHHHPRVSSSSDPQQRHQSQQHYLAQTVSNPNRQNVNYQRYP

B1: HA-tagged RPS-16 (protein, UniProt Q22054 1-144)
chain: MTSTVQSVQTFGRKKTATAVAHCKKGQGLIKVNGRPLEFLEPQILRIKLQEPLLLVGKERFQDVDIRIRVSGGGHVAQIYAVRQALAKALVAYYHKYVDEQSKRELKNIFAAYDKSLLVADPRRRESKKFGGPGARARYQKSYR
B2: HA-tagged FTT-2 (protein, UniProt Q20655 1-248)
chain: MSDGKEELVNRAKLAEQAERYDDMAASMKKVTELGAELSNEERNLLSVAYKNVVGARRSSWRVISSIEQKTEGSEKKQQMAKEYREKVEKELRDICQDVLNLLDKFLIPKAGAAESKVFYLKMKGDYYRYLAEVASGDDRNSVVEKSQQSYQEAFDIAKDKMQPTHPIRLGLALNFSVFFYEILNAPDKACQLAKQAFDDAIAELDTLNEDSYKDSTLIMQLLRDNLTLWTSDAATDDTDANETEGGN
B3: HA-tagged RPL-6 (protein, UniProt P47991 1-217)
chain: MVGKRNLPVISRNFDLSPGVLRFSASRLRLKKGEKKPKFTKDTSAKLPKLQRNGTKFALGHSKTVTLRKTLTPGTVLIVLAGRHKGKRVVFLKQLPQSGLLLVTGPHKINGFPLRRIGQAFVIATSLKVNVSGVKIPEHINDEYFKRKSTAQKTGKNIFASGKTEYTVSEQRKKDIKTVDAPILAAIKKHPEHKFLFGYLGTRFSLGKNQYPHKMQF
B4: HA-tagged PAL-1 (protein, UniProt P34766 1-270)
chain: MSVDVKSDFSENESSSTPSPTTVPADVTWPHYPMMPFMQPHPLREKMLQPTFDPQIYGRWSQMGDTGFYGHPDLYPFGLPQLAANGQIPAVEAVDVKPPLSNGSSSSDSGMYPSPSDMMTPFPSTSSGAASSSELSAAAAAAANYQMRAATCYQQSVWPFMDYQQFQGFSWKMPLGNNHGKDRRSSSDGKTLPTGPGTNNVRVRTADKYRMVYSDYQRLELEKEFHTSPFITSDRKSQLSTMLSLTERQIKIWFQNRRAKDRRDKQKIRL
B5: HA-tagged C18A3.3 (protein, UniProt Q09958 1-340)
chain: MVRKMNKLAKRLASTSKSRQPEPESDSDGSEFDFDNAIEEKPMEAMDIEEVESDGDDDERELQAAFAAGLLKDGLNIQVAKKRPIINKSAEMKEKLAEITKDLPWVETLEVVTPHSEMDKKVENDDFQRELNFYKQAEKAVQIAYPRLLNLGIKVLRPTDYYAEMAKSDTHMQKVRKRLLGIQEMKERQEAFRRIREEKKFAVKVQKEVLAAKNTEKKNLAEAVKKHKKGMKQQLEDMLNNVKRHGLDQDDDAPTGAFGDRLGGRGGAGRGGAGRGGSMRNAGELKRKLKSDKFGYGGKKKGMKRNNKESFNDLFGAPRGGFGGRGRGGGRGGRGGRGRR
B6: HA-tagged KIN-3 (protein, UniProt P18334 1-360)
chain: MPPIPSRARVYAEVNPSRPREYWDYEAHMIEWGQIDDYQLVRKLGRGKYSEVFEGFKMSTDEKVVVKILKPVKKKKIKREIKILENLRGGTNIITLLDVVKDPISRTPALIFEHVNNSDFKQLYQTLSDYDIRYYLYELLKALDFCHSQGIMHRDVKPHNVMIDAEKRELRLIDWGLAEFYHPRQDYNVRVASRYFKGPELLVDYQCYDYSLDMWSLGCMLASMIFRKEPFFHGHDNYDQLVRIAKVLGTDELYEYIARYHIDLDPRFNDILGRHSRKRWERFIHAENQHLVTPEALDFLDKLLRYDHAERLTAQEAMGHEYFRPVVEAHARANGTEQADGQGASNSASSQSSDAKIDGA
B7: HA-tagged FTT-1/PAR-5 (protein, UniProt P41932 1-248)
chain: MSDTVEELVQRAKLAEQAERYDDMAAAMKKVTEQGQELSNEERNLLSVAYKNVVGARRSSWRVISSIEQKTEGSEKKQQLAKEYRVKVEQELNDICQDVLKLLDEFLIVKAGAAESKVFYLKMKGDYYRYLAEVASEDRAAVVEKSQKAYQEALDIAKDKMQPTHPIRLGLALNFSVFYYEILNTPEHACQLAKQAFDDAIAELDTLNEDSYKDSTLIMQLLRDNLTLWTSDVGAEDQEQEGNQEAGN

These are yes or no findings as the source states them, for the method shown. In cells and extracts the contact can be indirect. Some binding calls cover weakened binding; strength is not graded here. Sequences can lack the tags named with a protein.

The target in this test is T1, LET-756::GFP (C. elegans). Kind of test: co-IP; Cos-1 cells cotransfected with HA-tagged partner and LET-756::GFP, lysed 24 h later in triton buffer (10 mM Tris pH 7.4, 100 mM NaCl, 2.5 mM MgCl2, 1% triton, 1 mM EDTA, 10 mM DTT); immunoprecipitated with anti-GFP, blot with anti-HA then anti-GFP.
Consider “HA-tagged TACC1 (from UniProt O75410 1-805)”, for which the binding entry was “no binding”.

Take “HA-tagged 14-3-3β (from UniProt P31946 1-246)”: the binding entry is listed as “binds”.

On to “HA-tagged DAF-21 (from UniProt Q18688 1-702)”, for which the binding result was “binds”.

With B1, the binding result is given as “binds”.

On to B2, for which the binding entry is recorded as “binds”.

Regarding B3, the binding result is “binds”.

Regarding B4, the binding entry is “binds”.

As for B5, the binding result is “binds”.

B6: the binding result was “binds”.

In the case of B7, the binding result is recorded as “binds”.
